Measurements from PubChem BioAssay AID493208 (National Center for Advancing Translational Sciences (NCATS), 2011).
Hit rate of the full screen: of about 44,000 compounds, about 340 (0.77%) were called active. Not shown: some 5% with an inconclusive outcome. The call rests on the fitted dose curve; in most records, active means well fitted inhibition curve with a large enough effect; inconclusive means small, poorly fitted or top-dose-only effect; inactive means flat fitted curve, though single readings scatter. Some of the results follow.

Assay: Acumen qHTS Assay for Inhibitors of the mTORC1 Signaling Pathway in MEF (Tsc2-/-, p53-/-) Cells: Sytravon;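 further: plate controls were DMSO for no effect and rapamycin for full effect; nearly all actives have a fitted effect of over 50% in size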
Conditions: phospho-rpS6 immunofluorescence/PI, 24 h; series mostly up to 38.3 µM; activity change, negative = inhibition: at the top concentration
Method in brief: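 Tsc2-/-, p53-/- mouse embryonic fibroblasts (empty-vector line) exposed to compound 24 hrs at 37 C, fixed, immunostained for phospho-rpS6 and counterstained with propidium iodide. Acumen laser scanning gives % positive cells from Alexa 488/PI ratio, thresholded using 7.5 nM rapamycin; PI count gives viability.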

Activity change, negative = inhibition, inactive:
O=c1oc2ccc(Br)cc2cc1-c1csc(-c2ccccc2)n1 0.623%
Cc1ccc(N2CC(NC(=O)c3ccc(S(=O)(=O)N4CCCCC4)cc3)CC2=O)cc1 (stereo not drawn) -5.44%
COC(=O)c1ccc(NC(=O)c2cc(=O)c3ccc(C)cc3o2)cc1 -0.709%
CN(C(=O)C1=CC(c2ccc3c(c2)OCO3)=NS(=O)(=O)N1C)c1ccccc1 -8.33%
CCCC(=O)Nc1nnc2n1CCS2 -14.6%
O=C(CSc1nc2c(c(=O)[nH]1)CN(Cc1ccc3c(c1)OCO3)CC2)Nc1cccc(Cl)c1 -3.49%
Cc1nc2c(c(C)nn2-c2ccccc2)c(C)c1CCC(=O)NCCc1ccccc1 -0.812%
Cn1nnc2c(NCc3ccccc3Cl)ncnc21 -8.2%
CCOc1ccc(Oc2nc(NC)nc(N3CCOCC3)n2)nn1 -8.21%
CCOC(=O)c1noc2ncnc(N3CCC(C)CC3)c12 -8.47%
COc1ccc(CC(=O)NCc2nc3cccnc3n2Cc2ccc(C)cc2)cc1OC 2.4%
Cc1cccc(Cn2cc3c(=O)n(CC(=O)Nc4ccc(C)c(F)c4)nc-3c3cc(F)ccc32)c1 -10.5%
COC(=O)c1cnc(N2CCN(c3ccccc3F)CC2)c2ccccc12 -19.8%
Cc1ccc(NC(=O)C2CCN(c3nc4ccccc4[nH]3)CC2)c(C)c1 6.5%
COc1ccc(OC)c(NC(=O)c2c(NCc3cccs3)sc3c2CCCC3)c1 -6.09%
CCc1ccccc1NC(=O)c1cc(S(=O)(=O)N2CCCC2)cn1C -3.37%
Cc1cccc(N2CCN(C(=O)CCc3c(C)nc4ncnn4c3C)CC2)c1C 1.67%
COCCN1C(=O)c2[nH]nc(-c3cc(C)ccc3O)c2C1c1ccc(C(C)C)cc1 (stereo not drawn) -5.53%
COc1ccccc1NC(=O)NCCN1CCN(c2cccc(Cl)c2)CC1 -4.84%
CC(C)c1cccc(C(C)C)c1NC1=NS(=O)(=O)c2ccccc21 5.25%
O=C(Cc1ccccc1)Nc1cccc(-c2cn3cccnc3n2)c1 -2.12%
CN(CC(=O)Nc1cccc(C(F)(F)F)c1)S(=O)(=O)c1cccs1 0.259%
Cc1ccc(CNS(=O)(=O)c2cc3c(cc2C)NC(=O)CO3)cc1 5.23%
COC(=O)C(C)Sc1ncnc2c1c(-c1ccccc1)cn2-c1ccc(F)cc1 (stereo not drawn) -4.29%
CCOc1ccc(S(=O)(=O)Nc2ccc3c(c2)N(C(C)=O)CCC3)cc1 10.6%
Cc1cccc(C)c1-n1ncc(C(=O)N2CCN(c3ccccc3)CC2)c1C1CCN(C(=O)OC(C)(C)C)CC1 -12.6%
O=C(Cn1c(-c2cccs2)cc2ccccc21)NCCc1ccc(Cl)cc1 -11.4%
CCOc1ccccc1NC(=O)c1cc2c(=O)oc3ccccc3c2s1 -7.88%
O=C(c1ccc(CSc2nc3ccncc3n2Cc2cccc(F)c2)cc1)N1CCCCCC1 -1.14%
CC1CCCCN1c1nnc(NC(=O)Nc2ccccc2F)s1 (stereo not drawn) -1.33%
Cc1ccc(/C=C/c2nc3ccccc3[nH]2)cc1 14.1%
CC(C)COc1ccc(C(=O)N(Cc2ccc(N(C)C)cc2)Cc2ccco2)cc1 -5.02%
CCc1ccc(NC(=O)CCS(=O)(=O)c2ccc3c(c2)n(C)c(=O)c(=O)n3C)cc1 -0.336%
CCC(Cn1nnc2ccccc2c1=O)NC(=O)Nc1ccc(C)c(C)c1 (stereo not drawn) 1.78%
COCCCNC(=O)CSc1nc2cc(OC)c(OC)cc2c2nc(-c3ccccc3)nn12 -0.464%
CS(=O)(=O)CCC(C(=O)Nc1cccc(C(F)(F)F)c1)N1Cc2ccccc2C1=O (stereo not drawn) -0.535%
CC1CCCN(C(=O)c2cc3c(Cl)nc4ccccc4c3s2)C1 (stereo not drawn) -1.32%
O=C(c1ccco1)c1cn(CCOc2ccc(F)cc2)c2ccccc12 -6.28%
Cc1ccc(OCc2nc3ccccc3n2CCOc2ccc(Cl)cc2)cc1 0.48%
Cc1ccc(-c2nc(SCC(=O)NCc3ccco3)c3c(=O)n(C)c(=O)n(C)c3n2)cc1 5.73%
Cc1ccc(Nc2nnc(-c3ccc(C)c(S(=O)(=O)NCc4nc5ccccc5[nH]4)c3)c3ccccc23)cc1 -19.5%
CC(C)c1ccc(NC(=O)Cn2c(=O)n(CCc3ccccc3)c(=O)c3ccccc32)cc1 -22.5%
Cc1ccc(C(=O)Nc2cccc(-c3nc4ccccc4o3)c2)c(Cl)c1 2.39%
Cc1ccc(-c2nnc(Nc3cccc(O)c3)c3ccccc23)cc1S(=O)(=O)N1CCN(C)CC1 -19.5%
Cc1nc2nc(SCC(=O)NCc3ccccc3Cl)nn2c(C)c1Cc1ccccc1 0.519%
CCc1ccc(NC(=O)C(CC)n2c(=O)c(C(F)(F)F)nc3ccccc32)cc1 (stereo not drawn) -0.454%
Cc1ccc(NC(=O)CC(C)S(=O)(=O)c2ccc3c(c2)NC(=O)CO3)cc1Cl (stereo not drawn) 0.0361%
CCc1nc(-c2cc(S(=O)(=O)N3CCN(c4ccccc4OC)CC3)ccc2OC)no1 -9.18%
CCOC(=O)Cn1c(=O)c2c(nc3n2CCN3c2ccc(CC)cc2)n(C)c1=O -7.72%
COc1cc(Cl)c(C)cc1Nc1ncnc2c1nc1n2CCCC1 -4.09%
COc1ccc(Cl)cc1NC(=O)CN1C(=O)COc2ccc(S(=O)(=O)NC3CCCC3)cc21 -12.3%
COc1ccc(-c2cc(C(=O)Nc3c(C)nn(Cc4ccc(C)cc4)c3C)no2)cc1OC -1.82%
Cc1ccc(-c2nnc(Nc3ccc(O)cc3)c3ccccc23)cc1S(=O)(=O)N1CCOCC1 6.75%
COc1cccc(NS(=O)(=O)c2ccc(-c3cc(C)no3)s2)c1 -11.5%
CCOC(=O)c1cc(-c2ccccc2)n(-c2cccc(C(=O)Nc3ccc(OCC)cc3)c2)c1C -2.71%
Cc1ccc(Nc2nn3c(=O)c4cc5c(cc4nc3s2)OCO5)cc1Cl 0.156%
CN(C(=O)CSc1cn(CC(=O)N2CCOCC2)c2ccccc12)c1ccccc1 1.95%
CCCCN(CC)CCNC(=O)Cn1cc2c(n1)-c1c(oc(C(=O)N3CCCC3)c1C)CC2 1.36%
COc1cccc(Cn2c(=O)n(Cc3ccco3)c(=O)c3oc4ccccc4c32)c1 -1.88%
CC(=O)N1CCCc2cc(S(=O)(=O)N3CCC(C(=O)NCc4cccc(C)c4)CC3)ccc21 -4.75%
CCCOc1cccc(C(=O)N(Cc2ccc(C)o2)C2CCS(=O)(=O)C2)c1 (stereo not drawn) -0.631%
COCCNc1sc(S(=O)(=O)c2ccc(C)cc2)nc1S(=O)(=O)c1ccc(C)cc1 -9.99%
CC(=O)Nc1ccc(NC(=O)CSc2nccn2C)cc1 -0.266%
